SMILES strings stand for the structures. About 6,900 (2%) of roughly 340,000 compounds were called active. Cut-off read from the data, not from the text of the source: active = inhibition above about 30%; inactive = below that, where a call was filed. This is a selection; strong and weak results do not stand in their true shares. Entries without a call were filed so in the source.

Sequence of UniProt P14416 (P14416 whole entry, looked up): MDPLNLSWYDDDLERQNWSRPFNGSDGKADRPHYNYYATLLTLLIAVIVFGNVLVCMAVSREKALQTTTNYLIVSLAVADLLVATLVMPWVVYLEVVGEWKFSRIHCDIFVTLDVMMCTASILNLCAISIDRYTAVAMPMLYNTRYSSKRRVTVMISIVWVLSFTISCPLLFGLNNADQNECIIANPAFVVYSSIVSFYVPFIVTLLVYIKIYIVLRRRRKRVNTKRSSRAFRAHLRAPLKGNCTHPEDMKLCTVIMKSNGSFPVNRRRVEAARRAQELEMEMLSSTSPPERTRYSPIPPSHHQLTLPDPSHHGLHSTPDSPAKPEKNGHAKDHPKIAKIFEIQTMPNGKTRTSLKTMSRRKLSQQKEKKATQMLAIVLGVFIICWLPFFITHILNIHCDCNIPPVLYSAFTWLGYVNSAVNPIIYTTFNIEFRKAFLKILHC

The target of the experiment is D(2) dopamine receptor (Homo sapiens) (UniProt P14416). The experiment is described as follows: HTS Assay for Allosteric Antagonists of the Human D2 Dopamine Receptor: Primary Screen for Antagonists. Note: 0% is about no effect. As to conditions: HEK293 TREx D2 cells, calcium flux, dopamine EC80; at 10 µM; stronger effect = higher value. The method, boiled down:
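Compounds are added to dye-loaded, induced HEK293 T-REx cells coupled to calcium release via D2; after a 3 min kinetic read an EC80 dopamine stimulus is given and fluorescence is recorded for 3 more min.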
For the molecule `CC1=C(C(=O)OC2CCCC2)C(c2c(Cl)cccc2Cl)CC(=O)N1` (configuration not stated), the inhibition (usually the relative decrease from the control value, in per cent) was -2.79%.
Take `Cc1cc(C(=O)N2CCN(c3ccccc3)CC2)c2c(C)nn(-c3cccc(F)c3)c2n1`: the inhibition came to 4.98%.
In the case of `COc1cc(NC(=O)C2CCN(C(=O)c3sc4nc[nH]c(=O)c4c3C)CC2)cc(OC)c1OC`, the inhibition was -18.8%.
In the case of `CCC(C)NC(=O)c1c(C)oc2ncn(CC(C)C)c(=O)c12` (configuration not stated), the inhibition was -0.372%.
Turning to `COc1ccc(-c2nc3ccccc3n3c(-c4cccc(C)c4)c4c(=O)n(C)c(=O)n(C)c4c23)cc1OC`, the inhibition stood at 20.1%.
In the case of `O=C(CCS(=O)(=O)c1cc(Br)cc2c1N(C(=O)C1CC1)CC2)N1CCN(c2cccc(Cl)c2)CC1`, the inhibition stood at 14.9%.
For the molecule `CCc1cccc(OCC(=O)Nc2ccc(S(=O)(=O)Nc3ncccn3)cc2)c1`, the inhibition was 13.5%.
Turning to `CCOc1ccccc1NC(=O)C1CCN(S(=O)(=O)c2ccc3[nH]c(=O)oc3c2)CC1`, the inhibition stood at 3.48%.
Consider `CC1CCc2c(cc(-c3ccccc3)n2-c2ccc(C(=O)NC(C)C)cc2)C1` (configuration not stated), for which the inhibition is -3.46%.
The figure for `Cc1cc(C)c(OCCCCN(C)Cc2ccccc2)c(C)c1` is active: 33.3%; for `Cc1cccc(C)c1OCc1nc2c3cnn(-c4ccccc4F)c3ncn2n1` it is -16.3%; for `CC(C)(C)c1ccc(OCc2nc3ccccc3n2CCOc2ccccc2)cc1` it is -3.7%.
In the case of `O=S(=O)(c1ccc(Cl)cc1)n1cccn1`, the inhibition was active: 40.4%.
The figure for `COc1cccc(NC(=O)CSc2nc3c([nH]c4ccccc43)c(=O)n2-c2cc(C)cc(C)c2)c1` is 1.13%; for `CC(=O)c1ccc(S(=O)(=O)N2CCn3cccc3C2c2ccccc2F)cc1` (configuration not stated) it is -6.34%.
As to `Cc1cc(C)cc(NC(=O)Cc2csc(C)n2)c1`, the inhibition worked out at 14.6%.
The figure for `COc1ccccc1CNC(=O)c1cc2c(=O)oc3ccc(C)cc3c2s1` is 14.7%; for `COc1ccc(CNC(=O)c2cc3c(=O)n(Cc4cccnc4)ccc3nc2C)cc1` it is 20.5%; for `COc1ccccc1CCNC(=O)Cc1ccc(NC(=O)N2CCSc3ncccc32)cc1` it is -1.53%.
In the case of `Cc1ccc2oc(-c3ccc(Cl)c(NC(=O)Cc4ccccc4)c3)nc2c1`, the inhibition is -2.23%.
`CCCNS(=O)(=O)c1cc(-c2nn3c(C)nnc3c3ccccc23)ccc1C`: the inhibition is -0.217%.
The value for `Cc1ccc(-n2c(=O)c3c4c(sc3n(Cc3cc(=O)n5cc(Cl)ccc5n3)c2=O)CCC4)cc1C` was -2.21%; that for `CCOC(=O)c1ccccc1NC(=O)CN(c1cccc(C)c1C)S(=O)(=O)c1ccccc1` was -1.33%.
The figure for `CCc1ccc(-c2nn(CC(=O)NC3CCCCC3)c3c2cnc2ccc(F)cc23)cc1` is -3.69%.
Take `CC(=O)N1CCCc2cc(S(=O)(=O)N3CCCC(C(=O)NCc4ccccc4Cl)C3)ccc21` (configuration not stated): the inhibition is 5.68%.
On to `COc1ccc(-c2ccc(-c3nnc(Cc4ccc(OC)c(OC)c4)o3)cc2)cc1`, for which the inhibition is active: 30.3%.
With `CCC(C(=O)NCCc1ccccc1)n1nc(C)c2sc3ccccc3c2c1=O` (configuration not stated), the inhibition amounted to 9.67%.
Turning to `COc1ccc(C2=C(C)C(N3CCC(C(=O)Nc4ccccc4F)CC3)=NS2(=O)=O)cc1`, the inhibition was found to be 2.63%.
The figure for `O=C(C1CCN(c2ncnc3c2nc2n3CCCCC2)CC1)N1CCN(c2ccccc2F)CC1` is 15.8%.
The figure for `CCOc1ccc2oc(=O)cc(CN3CCN(C(=O)c4ccc(OC)c(OC)c4)CC3)c2c1` is 20%; for `CCSc1ncc(Cl)c(C(=O)Nc2nnc(CC)s2)n1` it is 4.14%.
The figure for `Cc1cccc(NC(=O)CSc2ncc(-c3ccccc3)[nH]2)c1C` is -14.8%; for `Cc1cccc(Nc2nc(N)nc(N)c2S(=O)(=O)c2ccccc2)c1` it is -2.27%; for `O=C(c1ccccc1F)N1c2ncnn2C2(CCCCC2)[C@@H]2CCCC[C@@H]21` it is 9.32%.
`Cc1cccc(Cn2c(=O)n(Cc3ccccc3)c(=O)c3c2c2cc(C)ccc2n3C)c1`: the inhibition was 19.2%.
The figure for `CC(=O)c1ccc(NS(=O)(=O)c2c(C)nc3scc(C)n3c2=O)cc1` is -5.97%; for `CCOC(=O)c1sc2ccccc2c1S(=O)(=O)Nc1ccc(C(C)=O)cc1` it is 5.65%.
As to `CCn1cc(C(=O)NCCc2ccc(OC)c(OC)c2)c(=O)c2cc(S(=O)(=O)N3CCCCCC3)ccc21`, the inhibition is -5.37%.
The figure for `CSc1ncc(C(=O)Nc2ccc(C)c(Cl)c2)c(-c2ccccc2)n1` is 10.5%; for `CCc1ccc(N(CC)C(=O)Cn2nc(Cc3cccnc3)c3ccccc3c2=O)cc1` it is -1.31%; for `CCOC(=O)c1cc(C)n(CC2CCC(C(=O)Nc3ccccc3OC)CC2)c1C` (configuration not stated) it is -0.535%.
As to `COc1ccccc1NC(=O)c1oc2ccccc2c1NC(=O)COc1cccc(C)c1`, the inhibition worked out at 5.57%.
The value for `COc1ccc(Cl)cc1NC(=O)N(C)CCc1c(C)nn(C)c1C` was 13.1%.
`Cc1ccc2oc(-c3ccc(C)c(NC(=O)C(C)(C)Oc4ccc(Cl)cc4)c3)nc2c1`: the inhibition turned out to be 7.56%.
For `O=C1N(Cc2ccccc2Cl)c2ccccc2C1(O)c1c[nH]c2ccccc12` (configuration not stated), the inhibition was -2.45%.
Turning to `CC1=C(C(=O)OCC2CCCCC2)C(c2ccc(Cl)cc2)CC(=O)N1` (configuration not stated), the inhibition was -13.3%.
For the molecule `Cc1nonc1OCCN1CCN(c2ccccc2[N+](=O)[O-])CC1`, the inhibition is active: 53.4%.
The figure for `Cc1ccc(CN(Cc2ccco2)C(=O)c2oc3cc(Br)ccc3c2C)cc1` is 16.4%; for `Clc1ccccc1-c1nnc(COc2ccccc2)o1` it is 1.79%; for `Cc1nc2nc(NC(=O)c3ccc(C(C)(C)C)cc3)[nH]n2c(=O)c1Cc1ccccc1` it is 22.2%.
On to `CCOC(=O)c1ccc(NC(=O)CSc2nc3cc4ccccc4cc3[nH]2)cc1`, for which the inhibition turned out to be 0.967%.
As for `COc1ccc(CNC(=O)Cn2ccc3cc(S(=O)(=O)N4CCCCC4)ccc32)cc1OC`, the inhibition was -15.1%.
The value for `Cc1ccc(-n2c(=O)c3c4c(sc3n(Cc3cc(=O)n5ccccc5n3)c2=O)CCC4)cc1C` was 5.17%; that for `Cn1c(=O)c2c(nc(-n3ccnc3)n2Cc2ccc([N+](=O)[O-])cc2)n(C)c1=O` was active: 30.6%.
`COc1ccc(OC)c(NC(=O)CN2C(=O)CC(C)Sc3ccccc32)c1` (configuration not stated): the inhibition is -2.07%.
The value for `CCOc1ccc(NC(=O)CSc2oc(-c3ccc(F)cc3)nc2S(=O)(=O)c2ccc(C)cc2)cc1` was -6.62%.
The value for `O=C(CCOc1ccccc1)N(Cc1cccnc1)c1nc2ccc(Cl)cc2s1` was 22%; that for `CCC(C(=O)Nc1cccc(-c2nc3cccnc3s2)c1C)c1ccccc1` (configuration not stated) was 11.5%; that for `COc1ccc(-n2cc(C(=O)NCCc3cc(OC)ccc3OC)c3ccccc3c2=O)cc1` was -11.1%.
As to `CC(C)CC(=O)Nc1nnc(S(=O)(=O)N(C)Cc2ccc(Cl)cc2)s1`, the inhibition came to 2.29%.
Turning to `CC1=C(C(=O)Nc2ccc(C)cc2C)C(c2cccs2)n2nc(SCc3cccc(C)c3)nc2N1` (configuration not stated), the inhibition stood at 4.42%.
`CNC(=O)CSc1cn(CC(=O)N2CCCCCC2)c2ccccc12`: the inhibition was 24.4%.
As for `OCC1CCCCN1CC(O)COC(c1ccc(F)cc1)c1ccc(F)cc1` (configuration not stated), the inhibition was active: 30.6%.
For `COc1cccc(CNC(=O)Cn2nc(-c3ccc(Cl)cc3)ccc2=O)c1`, the inhibition is 3.75%.
Take `Cc1cccc2c1N(Cc1ccccc1OCCC(C)C)C(=O)C2=O`: the inhibition amounted to 15.5%.
The figure for `CC(=O)c1ccc(NC(=O)c2cc(C)nc3c2c(C)nn3-c2ccc(C)cc2)cc1` is -5.79%; for `COc1ccc(-n2c(=O)c3c(c4cc(OC)ccc4n3C)n(Cc3cccc(C)c3)c2=O)cc1` it is -11.5%.
`CC(=O)c1ccc(N2CCN(c3ncnc4c3c(-c3ccccc3)cn4-c3ccc(Cl)cc3)CC2)cc1`: the inhibition was -3.79%.
Turning to `CC(C)NS(=O)(=O)c1ccc(OCC(=O)N2CCc3ccccc3C2)cc1`, the inhibition was active: 30.4%.
The value for `C(=N\Nc1nc2ccccc2s1)/c1cccs1` was active: 37.5%.
On to `CCCCSc1nnc2n(-c3ccc(OC)cc3)c(=O)c3c4c(sc3n12)COC(C(C)C)C4` (configuration not stated), for which the inhibition is -26%.
The value for `CC1(C(=O)NCc2ccc(F)cc2)Oc2ccccc2NC1=O` (configuration not stated) was active: 75.8%.
With `CCOC(=O)c1cc(S(=O)(=O)Nc2cc(F)ccc2C)[nH]n1`, the inhibition was -13.4%.
The value for `CCOC(=O)N1CCc2c(sc3c2C(=O)NC(c2cc(OC)c(OC)c(OC)c2)N3)C1` (configuration not stated) was 19.4%; that for `COc1ccccc1NC(=O)c1c(NCc2ccc(C)o2)sc2c1CCCCC2` was 14%; that for `COc1ccc(-c2cc(C(F)(F)F)n3nc(-c4ccccc4)cc3n2)cc1OC` was -7.15%.
Consider `CCc1ccc(NC(=O)Cn2c(=O)n(CCC(C)C)c(=O)c3cccnc32)cc1`, for which the inhibition was -1.27%.
The figure for `CC(=O)Nc1nonc1-c1nnc(SCc2ccccc2F)n1C` is 6.6%; for `CCc1ccccc1NS(=O)(=O)c1ccc2c(c1)CC(=O)N2` it is -8.29%; for `Cc1ccc(NC(=O)C2CCCN(C(=O)c3cnn(-c4ccc(F)cc4)c3-n3cccc3)C2)c(Cl)c1` (configuration not stated) it is 7.97%.
The value for `O=C(CSc1ccc(-c2cccs2)nn1)Nc1ccccc1C(F)(F)F` was -2.06%.
The figure for `COc1ccc(-n2c(-c3ccco3)nc3c(cnn3-c3ccc(Cl)cc3)c2=O)cc1` is 2.25%.
As to `O=C(NCCc1ccccc1Cl)C1CCN(c2nc3ccccc3nc2C(F)(F)F)CC1`, the inhibition was 0.154%.
The value for `CCOc1ccc(/C=C/c2nc(C#N)c(NCc3ccccc3)o2)cc1` was -1.56%; that for `O=C(CCC1N=C2c3ccccc3N=C(SCc3ccc(F)cc3)N2C1=O)NCCc1ccccc1` (configuration not stated) was 6.77%.
The value for `COc1ccc(Cl)cc1NC(=O)C(C)Sc1nc2c(c(=O)[nH]1)CCCC2` (configuration not stated) was 2.25%; that for `CCOc1ccccc1CNC(=O)c1ccc2c(c1)N(Cc1ccc(C)cc1)CCS2` was 14.4%.
`CN(C)S(=O)(=O)c1cc(NC(=O)CN2CCN(c3ccccc3)CC2)ccc1Cl`: the inhibition was active: 63.9%.
The figure for `CC(=O)c1cccc(NC(=O)CSc2nc(=O)n(Cc3ccco3)c3c2CCC3)c1` is -16.8%; for `Cc1oc(-c2cccc(Cl)c2)nc1CS(=O)(=O)CC(=O)NC(C)CCc1ccccc1` (configuration not stated) it is -3.66%.
The figure for `O=C(CN1C(=O)CSc2ccc(S(=O)(=O)N3CCOCC3)cc21)NCCCN1CCc2ccccc2C1` is active: 47.1%; for `CCCCN(CC)C(=O)c1nn(C)c2c1CSc1ccccc1-2` it is 15%.
`Cc1cc(C)cc(NC(=O)CSc2nc(=O)n(CCN3CCOCC3)c3c2CCC3)c1`: the inhibition turned out to be 0.443%.
The value for `Cc1ccc(Cl)cc1NC(=O)CSc1nccn1C` was -8.81%; that for `COC(=O)c1c(NC(=O)Cc2coc3cc(C)ccc23)sc2c1CCC2` was 11%; that for `CCOC(=O)c1noc2nc(C)n(CC(=O)NC(C)CC)c(=O)c12` (configuration not stated) was -19.8%.
With `O=C(CCc1nnc(CCCCc2ccccc2)o1)NC(c1cccnc1)C(F)(F)F` (configuration not stated), the inhibition is active: 32.7%.

The values above are taken from PubChem BioAssay AID485344 (National Center for Advancing Translational Sciences (NCATS), 2010).
